Several values for one entry are separate records, joined by “and”; a condition that tells them apart may be missing. Identical values can stand only once. Hit rate of the full screen: of about 390,000 compounds, about 4,000 (1%) were called active. The shares of active, inactive and inconclusive entries below differ from those in the screen. The call rests on the fitted dose curve; in most records, active means well fitted inhibition curve with a large enough effect; inconclusive means small, poorly fitted or top-dose-only effect; inactive means no such curve, though single readings can be large or run the other way. Where the call is inconclusive, the potency comes from a doubtful curve fit.
Each compound was assayed against Thioredoxin reductase 1, cytoplasmic (Rattus norvegicus) (UniProt O89049) (assay: qHTS Assay for Inhibitors of Mammalian Selenoprotein Thioredoxin Reductase 1 (TrxR1): qHTS). Settings: recombinant rTrxR1, NADPH fluorescence consumption, selenite substrate; series mostly up to 114 µM; activity change, negative = inhibition: at the top concentration.
Procedure, shortened: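 Rat TrxR1 (90 nM in the dispensed reagent) was pre-reduced with 400 uM NADPH for 5 min at room temperature, then incubated with compound for 15 min. After 400 uM selenite was added, NADPH fluorescence (Ex 340/Em 450 nm) was followed for 8 min.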
Further: nearly all actives have a fitted effect of over 65% in size.
On the % scale 0 is the no-effect control and ±100 the full control effect; potency means the concentration at half of the fitted maximal effect; tags describe the fitted curve by direction and shape.

UniProt O89049, sequence (O89049 whole entry, looked up): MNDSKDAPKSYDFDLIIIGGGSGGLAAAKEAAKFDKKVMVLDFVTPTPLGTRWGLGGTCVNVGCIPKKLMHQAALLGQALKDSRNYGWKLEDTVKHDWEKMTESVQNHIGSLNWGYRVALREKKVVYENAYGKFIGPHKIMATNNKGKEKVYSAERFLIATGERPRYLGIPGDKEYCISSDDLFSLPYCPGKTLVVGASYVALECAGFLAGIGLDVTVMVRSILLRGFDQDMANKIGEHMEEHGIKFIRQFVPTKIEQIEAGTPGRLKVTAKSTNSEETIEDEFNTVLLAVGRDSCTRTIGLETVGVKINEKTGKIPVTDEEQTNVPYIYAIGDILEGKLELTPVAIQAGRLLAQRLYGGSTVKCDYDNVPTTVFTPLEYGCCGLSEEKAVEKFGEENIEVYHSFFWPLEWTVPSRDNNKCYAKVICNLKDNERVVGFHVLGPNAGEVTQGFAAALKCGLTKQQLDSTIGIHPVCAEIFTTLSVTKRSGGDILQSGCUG

SMILES | Potency | activity change, negative = inhibition
Cc1noc(/C=C/c2ccco2)c1S(=O)(=O)N1CCC(C(=O)Nc2ccc(Cl)cn2)CC1 | inconclusive: 10 µM [inhibitor, partial curve, poor fit] | 
O=C(Cc1ccccc1)Nc1ccc(NC(=S)NC(=O)c2ccccc2)cc1 | inconclusive: 10 µM [inhibitor, full curve] | 
COc1cccc(-n2nnnc2S(C)(=O)=O)c1 | active: 3.16 µM | 
O=C1C2C3C=CC(C3)C2C(=O)N1Cc1ccccc1 (stereo not given) |  | inactive: 11.2%
O=[N+]([O-])c1ccc(-n2nnnc2-c2ccccc2)c([N+](=O)[O-])c1 | inconclusive: 44.7 µM [inhibitor, partial curve, poor fit] | 
CCc1ccc(-c2nc(CS(=O)CC(=O)NC3CC3)c(C)o2)cc1 (stereo not given) | active: 15.8 µM | 
O=C(Cc1cccs1)NNC(=S)NC(=O)c1ccccc1 | inconclusive: 22.4 µM [inhibitor, single point] | 
Cc1cc(C(=O)N/N=C/c2cc(Br)c(Br)o2)n[nH]1 | active: 35.5 µM | 
O=C(NCc1ccccc1)N1CCN(c2ccccc2F)CC1 |  | inactive: 20.5% [at 57.1 µM]
Cc1ccc(-c2nc3ccc(Cl)cn3c2Nc2ccccc2)o1 | inconclusive: 79.4 µM [inhibitor, single point] | 
Cc1c(CC(=O)O)c(=O)oc2cc3oc4c(c3cc12)CCCC4 | inconclusive: 100 µM [inhibitor, single point] | 
CCSc1nnc(NC(=O)c2ccco2)s1 |  | inactive: -8.98%
CC1CCN(c2ccccc2NC(=S)NC(=O)c2ccco2)CC1 | inconclusive: 56.2 µM [inhibitor, partial curve] | 
CC1=NN(C(N)=S)C(=O)C1N=Nc1c(Br)cc(Br)cc1Br (stereo not given) | inconclusive: 89.1 µM [inhibitor, single point] | 
N#C/C(=C\c1ccc(OC(=O)c2ccccn2)cc1)C(N)=O | inconclusive: 56.2 µM [inhibitor, partial curve, poor fit] | 
O=C(Nc1ccc(/C=C/c2nc3ccccc3o2)cc1)c1cccc(C(F)(F)F)c1 | inconclusive: 89.1 µM [inhibitor, single point] | 
CC1CCN(C(=O)COC(=O)/C=C/c2ccco2)CC1 | active: 8.91 µM | 
CC1=C(C(=O)Nc2ccccc2)C2(CCCCC2)C(C(N)=O)C(=S)N1 (stereo not given) | inconclusive: 56.2 µM [inhibitor, partial curve, poor fit] | 
CN(C)c1ccnc(Oc2ccccc2)c1C#N | inconclusive: 3.55 µM [inhibitor, partial curve, poor fit] | 
CCn1c(SCC(=O)NC(=O)NCc2ccco2)nc2sc(C)c(C)c2c1=O | inconclusive: 14.1 µM [inhibitor, full curve] | 
COc1ccc(N)cc1-n1c(C)ccc1C | inconclusive: 25.1 µM [inhibitor, single point] | 
CCOc1cccc(-c2c(C(=O)N/N=C/c3ccncc3)nnn2-c2nonc2N)c1 |  | inactive: 3.28%
OC(CCN1CCOCC1)(c1ccc(Cl)cc1)C1CCCCC1 (stereo not given) | inconclusive: 31.6 µM [inhibitor, single point] | 

SMILES | Potency | activity change, negative = inhibition
CCC(=O)Nc1ccccc1C(=O)OC(c1ccccc1)c1ccccc1 |  | inactive: -3.47%
Cc1ccc(CCC(=O)Nc2ccc(S(N)(=O)=O)cc2)o1 | inconclusive: 25.1 µM [inhibitor, single point] | 
COc1ccc(CC(=O)Nc2sc3c(c2C(=O)Nc2ccc(C)cc2)CCCCC3)cc1 |  | inactive: -22.6%
CCNC(=O)Oc1ccc[nH]c1=O |  | inactive: 1.49% [at 2.29 µM]
O=C(N/N=C/c1ccccn1)c1ccc(Br)o1 |  | inactive: -8.19%
C=CCc1cc(OC)ccc1OCC(O)CN1CCN(c2ccc(OC)cc2)CC1 (stereo not given) | inactive | 
COc1cccc(/C=C2\SC(=O)N(CCC(=O)N3CCCCC3CCO)C2=O)c1 (stereo not given) | inconclusive: 89.1 µM [inhibitor, single point] | 
Cc1ccc(-c2nc3cnccn3c2Nc2ccc(C(C)C)cc2)o1 | active: 12.6 µM | 
CN(C)S(=O)(=O)c1cccc(NC(=S)NN=C(Cc2ccccc2)Cc2ccccc2)c1 |  | inactive: -24%
Cn1c(N)c(C(=O)CSc2nnc(Cc3cccs3)n2C2CC2)c(=O)n(C)c1=O |  | inactive: 6.29%
Cc1cc(C)cc(NS(=O)(=O)c2ccc3[nH]cc(C(=O)NCc4ccco4)c(=O)c3c2)c1 | inconclusive: 70.8 µM [inhibitor, partial curve, poor fit] and inconclusive: 22.4 µM [inhibitor, partial curve, poor fit] | 
Cc1ccc(Sc2cc(C(=O)NCCCN(C)C)c3ccccc3n2)cc1 | inconclusive: 44.7 µM [inhibitor, partial curve] | 
CCOc1ccccc1C(=O)Nc1cc2c(cc1N1CCCCC1)n(C)c(=O)n2C | inconclusive: 89.1 µM [inhibitor, single point] | 
COc1cccc(NC(=O)CN(C)CC(=O)Nc2ccc(Cl)cc2[N+](=O)[O-])c1 |  | inactive: 25.2% [at 57.1 µM]
O=c1[nH]c(=O)n(C2OC(CO)C(O)C2O)cc1F (stereo not given) |  | inactive: -5.34%
COc1cc([N+](=O)[O-])ccc1NC(=O)COC(=O)CCOc1ccc(C)cc1 | inconclusive: 56.2 µM [inhibitor, partial curve, poor fit] | 
CCCCN(C)CCNC(=O)Cn1c(=O)sc2ccccc21 | inconclusive: 39.8 µM [inhibitor, single point] | 
Oc1ccc(/C=N/NC(=S)Nc2cccnc2)c(O)c1O | inconclusive: 14.1 µM [inhibitor, full curve, poor fit] | 
COc1ccc(NC(=O)CSc2nc3[nH]ncc3c(=O)n2-c2ccccc2OC)cc1OC | inconclusive: 44.7 µM [inhibitor, partial curve] | 
CCCc1[nH]nc2c1C(c1ccc(OC)c(CSC3=NCCS3)c1)C(C#N)=C(N)O2 (stereo not given) | inconclusive: 35.5 µM [inhibitor, single point] | 
CCOc1ccc(CCNC(=O)Cn2ccc3cc(S(=O)(=O)N4CCCCC4)ccc32)cc1 |  | inactive: 51.4%
CCOC(=O)C1=C(CSc2nc(C)cc(C)c2C#N)OC(N)=C(C#N)C1c1cccs1 (stereo not given) | inconclusive: 14.1 µM [inhibitor, full curve] | 

From PubChem BioAssay AID588453 (National Center for Advancing Translational Sciences (NCATS), 2011)
